# Some of the results follow.
# Biological target: T1, OsWOX13 (Oryza sativa, UniProt Q5QMM3 1-267)
# T1 sequence: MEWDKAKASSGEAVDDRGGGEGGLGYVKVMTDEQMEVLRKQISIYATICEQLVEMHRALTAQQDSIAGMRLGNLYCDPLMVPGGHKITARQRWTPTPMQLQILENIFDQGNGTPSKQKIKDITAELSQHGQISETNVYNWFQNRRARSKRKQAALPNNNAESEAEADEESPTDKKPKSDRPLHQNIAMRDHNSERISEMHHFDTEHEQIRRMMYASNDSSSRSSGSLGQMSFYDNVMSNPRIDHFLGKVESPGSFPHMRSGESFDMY
# Experiment: protein-binding microarray (RPBM); PBS, 2% BSA, 51.3 ng/ul salmon testes DNA, 50 uM zinc acetate, 200 nM TF, 25 C, 1 h; high values mean tight binding
# Conditions: protein: recombinant; tags: N-terminal polyhistidine and DsRed monomer fusion (pET32a); label: CyDye5-dUTP incorporated in the synthesized complementary strand; 3' TTTTT single-stranded linker to array surface; dsDNA, one strand shown
# How it was run: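 The binding signal is fluorescence intensity per feature, in arbitrary units, read on an Axon 4000B scanner. Polyhistidine- and DsRed-tagged transcription factors (N-terminal fusions) from E. coli BL21-CodonPlus were purified on Ni–NTA and applied at 200 nM for 1 h at 25 °C to a double-stranded, BSA-blocked custom Agilent array in buffer with 50 µM zinc acetate.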
row,Sequence,binding signal
1,ACTAATTACTGAACTATCATGCATGCATGCAGTACACATTCGGAGTCACCTAGTGCAG,30600 fluorescence intensity (a.u.)
2,AATTTGTAATTTTATTTCTTAGATTATCGGTATTGACATACGGAGTCACCTAGTGCAG,4480 fluorescence intensity (a.u.)
3,CCACAATTTTGCATAATTACTGGTAAGATTTATGACATCACGGAGTCACCTAGTGCAG,17200 fluorescence intensity (a.u.)
4,TCATATTGATGTTAATGAAACTACATCTATTTAAGTTTCACGGAGTCACCTAGTGCAG,14500 fluorescence intensity (a.u.)
5,GCATGTGATTAATCGGTGATTATGTCTTAATGGAAGGAAACGGAGTCACCTAGTGCAG,28200 fluorescence intensity (a.u.)
6,CTCAAAAGTTAATCACTAATTTGACTACACACTTTCAGAACGGAGTCACCTAGTGCAG,10900 fluorescence intensity (a.u.)
7,AGCCTCTGACATCTCAATCACATGATCATGAGTGGTTTTCCGGAGTCACCTAGTGCAG,16800 fluorescence intensity (a.u.)
8,CTTTTATAAACTTATTTAAATTTAAACAAGTTTAACTAAGCGGAGTCACCTAGTGCAG,7130 fluorescence intensity (a.u.)
9,TTGATTGTGTGTGGAAGATCAATCCAAATATGTTCATTTCCGGAGTCACCTAGTGCAG,8930 fluorescence intensity (a.u.)
10,ATGTGAAATTGAATGCAGTAGTATGCACATGAAACTTGGGCGGAGTCACCTAGTGCAG,11300 fluorescence intensity (a.u.)
11,CTATAATTTTACGGAAGAGCCCCTGCTTTAACCTGTATTTCGGAGTCACCTAGTGCAG,4380 fluorescence intensity (a.u.)
12,GCTCTGTTCTTCTCTGTTCTTCTCTATTCCTTCCAAATTCCGGAGTCACCTAGTGCAG,8290 fluorescence intensity (a.u.)
13,GGATTGGGATTGAGAAATGAATGAAGGGTTAGAATTAAATCGGAGTCACCTAGTGCAG,6360 fluorescence intensity (a.u.)
14,GTAATAATTGTATCAAAATTGATGAAAGTAGAAAATAATTCGGAGTCACCTAGTGCAG,22600 fluorescence intensity (a.u.)
15,ATTAATTACGCGCTAATCGTTGCTCCGTTTTCCGTGCAAACGGAGTCACCTAGTGCAG,11400 fluorescence intensity (a.u.)
16,AATAATTTTCTTTTGTCACACTGTTTCTTCTCTAATCTATCGGAGTCACCTAGTGCAG,5890 fluorescence intensity (a.u.)
17,AATTCAGCTGTCACATTGATTGGCTTGGCTAATAAGCTGTCGGAGTCACCTAGTGCAG,23800 fluorescence intensity (a.u.)
18,TTAAATTAGAAATACGAGGATGGTAAGGTTTGGTCTTTCACGGAGTCACCTAGTGCAG,11900 fluorescence intensity (a.u.)
19,GACACCACAAATTGGGCTTTGATTATTCGACATCGTGACCCGGAGTCACCTAGTGCAG,14700 fluorescence intensity (a.u.)
20,CTTAAAATTATAAGTATTGACAAAGGAAATCTCGAAGAAGCGGAGTCACCTAGTGCAG,10800 fluorescence intensity (a.u.)
21,AATTGTCCCTGATTGACACCTCTTACTTGACCCTTCTTTCCGGAGTCACCTAGTGCAG,42600 fluorescence intensity (a.u.)

row,Sequence,binding signal
1,ACTCTTAAATTTAATTTTAAGAATAGTTAGGATATGGAGCCGGAGTCACCTAGTGCAG,17500 fluorescence intensity (a.u.)
2,ATCTGTCACATTAGACATAAATAAAATATTTGCGAAATGTCGGAGTCACCTAGTGCAG,3540 fluorescence intensity (a.u.)
3,GATGTGACACGACAAAATTTTACACATATGATCTGAACACCGGAGTCACCTAGTGCAG,3640 fluorescence intensity (a.u.)
4,CCATGATTTGACAATGTGGTGCTACAGTAAACATTTGCCACGGAGTCACCTAGTGCAG,25700 fluorescence intensity (a.u.)
5,TCATTTGATTAATATTATCAAAATACATTCAATGTTAAATCGGAGTCACCTAGTGCAG,12000 fluorescence intensity (a.u.)
6,TTTATTGATTGAGAGGAACTATCTACCTCTGTAATGACATCGGAGTCACCTAGTGCAG,46600 fluorescence intensity (a.u.)
7,CAGAAACTGGCAATCAAATATGGGGATCAAATTTATGACGCGGAGTCACCTAGTGCAG,32000 fluorescence intensity (a.u.)
8,GTACAAAATTATCTAAAATTAACTACAAAATTATGTACTACGGAGTCACCTAGTGCAG,12800 fluorescence intensity (a.u.)
9,CAATTGACTGGCTCTCAATCATTTGCAGCTTTGGAGTCTTCGGAGTCACCTAGTGCAG,36000 fluorescence intensity (a.u.)
10,TCCAGTCTGAACTTTGATGGATTGAGCGGCTGCATTGCTACGGAGTCACCTAGTGCAG,3540 fluorescence intensity (a.u.)
11,TAATAATTTATTATGTGTATGTGTATGGCTAGGATACAGCCGGAGTCACCTAGTGCAG,16500 fluorescence intensity (a.u.)
12,TACTAATTTTAGCTTCCACATTTCTTGTACGCAAGCCTGTCGGAGTCACCTAGTGCAG,4200 fluorescence intensity (a.u.)
13,CTTACACATAATTAATTATTAAAGACCCTATGCGGAGCAACGGAGTCACCTAGTGCAG,25000 fluorescence intensity (a.u.)
14,CAGATTATTGAGTGGCTAAAGATCCACTACCCCTAGATAACGGAGTCACCTAGTGCAG,7380 fluorescence intensity (a.u.)
15,ATGGAATCAGTAATTAACTAGAAATAAATTAATACTCCTACGGAGTCACCTAGTGCAG,9880 fluorescence intensity (a.u.)
16,ATAAATTTTAAGTCAAATCAACCAGAAAATTCATAATTTGCGGAGTCACCTAGTGCAG,14200 fluorescence intensity (a.u.)
17,CTTTATTGATAGGATAAAATTGTTACATCGTTTACCAGATCGGAGTCACCTAGTGCAG,52600 fluorescence intensity (a.u.)
18,AAACTAATTTTATAATTCGTTTGGAAACCGCGAGACAAATCGGAGTCACCTAGTGCAG,14100 fluorescence intensity (a.u.)
19,GTTGATTGGTCGGGCGGAGCAGCGGTCGAACAGCTTGCGGCGGAGTCACCTAGTGCAG,50400 fluorescence intensity (a.u.)
20,GTTATAAATTGAAGTGGTTAAGCCAGTACTCCAGTTTAATCGGAGTCACCTAGTGCAG,13300 fluorescence intensity (a.u.)
21,CAAATGATTGCTTCAAATGATACCGAGATTATTGTCCCTACGGAGTCACCTAGTGCAG,34000 fluorescence intensity (a.u.)
